# The list shows a part of the results.
# Tests used:
# Assay in all cases: glycan array binding signal (z-score within array); higher = stronger binding
# Conditions in all cases: glycan notation: IUPAC condensed, linker removed
# [1] = molecular target: Fuc(a1-3)[Gal3S(b1-4)]GlcNAc
# In short: (§1)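 The Consortium for Functional Glycomics database supplied 3228 glycan arrays, of which those lacking an available protein sequence were dropped. The binding signal, a within-array Z-score, was averaged across arrays of the same protein sequence and across linkers. Negative scores can be read as non-binding.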
# [2] = molecular target: Fuc(a1-3)[Gal3S(b1-4)]GlcNAc6S
# In short: as §1
# [3] = molecular target: Fuc(a1-3)[GalNAc(b1-4)]GlcNAc
# In short: as §1
# [4] = molecular target: Fuc(a1-3)[GalNAc(b1-4)]GlcNAc6S
# In short: as §1
# [5] = molecular target: Fuc(a1-4)GlcNAc
# In short: as §1
# [6] = molecular target: Fuc(b1-3)GlcNAc
# In short: as §1
# [7] = molecular target: Gal(a1-2)Gal
# In short: as §1
# [8] = molecular target: Gal(a1-3)Gal
# In short: as §1
# [9] = molecular target: Gal(a1-3)Gal(b1-3)GlcNAc
# In short: as §1
# [10] = molecular target: Gal(a1-3)Gal(b1-3)GlcNAc(b1-2)Man
# In short: as §1
# [11] = molecular target: Gal(a1-3)Gal(b1-3)GlcNAc(b1-2)Man(a1-3)[Gal(a1-3)Gal(b1-3)GlcNAc(b1-2)Man(a1-6)]Man(b1-4)GlcNAc(b1-4)GlcNAc
# In short: as §1
# [12] = molecular target: Gal(a1-3)Gal(b1-3)GlcNAc(b1-3)GalNAc
# In short: as §1
# [13] = molecular target: Gal(a1-3)Gal(b1-3)GlcNAc(b1-6)GalNAc
# In short: as §1
# [14] = molecular target: Gal(a1-3)Gal(b1-3)[Fuc(a1-4)]GlcNAc(b1-2)Man(a1-3)[Gal(a1-3)Gal(b1-3)[Fuc(a1-4)]GlcNAc(b1-2)Man(a1-6)]Man(b1-4)GlcNAc(b1-4)GlcNAc
# In short: as §1
# [15] = molecular target: Gal(a1-3)Gal(b1-4)Glc
# In short: as §1
# [16] = molecular target: Gal(a1-3)Gal(b1-4)GlcNAc
# In short: as §1
# [17] = molecular target: Gal(a1-3)Gal(b1-4)GlcNAc(b1-2)Man
# In short: as §1
# [18] = molecular target: Gal(a1-3)Gal(b1-4)GlcNAc(b1-2)Man(a1-3)[Gal(a1-3)Gal(b1-4)GlcNAc(b1-2)Man(a1-6)]Man(b1-4)GlcNAc(b1-4)GlcNAc
# In short: as §1
# [19] = molecular target: Gal(a1-3)Gal(b1-4)GlcNAc(b1-3)GalNAc
# In short: as §1
# [20] = molecular target: Gal(a1-3)Gal(b1-4)GlcNAc(b1-6)GalNAc
# In short: as §1
# [21] = molecular target: Gal(a1-3)Gal(b1-4)[Fuc(a1-3)]GlcNAc
# In short: as §1
# [22] = molecular target: Gal(a1-3)Gal(b1-4)[Fuc(a1-3)]GlcNAc(b1-2)Man(a1-3)[Gal(a1-3)Gal(b1-4)[Fuc(a1-3)]GlcNAc(b1-2)Man(a1-6)]Man(b1-4)GlcNAc(b1-4)GlcNAc
# In short: as §1
# [23] = molecular target: Gal(a1-3)GalNAc
# In short: as §1
# [24] = molecular target: Gal(a1-3)[Gal(a1-4)]Gal(b1-4)GlcNAc
# In short: as §1
# [25] = molecular target: Gal(a1-4)Gal(b1-3)GlcNAc(b1-2)Man(a1-3)[Gal(a1-4)Gal(b1-3)GlcNAc(b1-2)Man(a1-6)]Man(b1-4)GlcNAc(b1-4)GlcNAc
# In short: as §1
# [26] = molecular target: Gal(a1-4)Gal(b1-4)Glc
# In short: as §1
# [27] = molecular target: Gal(a1-4)Gal(b1-4)GlcNAc
# In short: as §1
# [28] = molecular target: Gal(a1-4)Gal(b1-4)GlcNAc(b1-2)Man(a1-3)[Gal(a1-4)Gal(b1-4)GlcNAc(b1-2)Man(a1-6)]Man(b1-4)GlcNAc(b1-4)GlcNAc
# In short: as §1
# [29] = molecular target: Gal(a1-4)Gal(b1-4)GlcNAc(b1-3)Gal(b1-4)Glc
# In short: as §1
# [30] = molecular target: Gal(a1-4)GlcNAc
# In short: as §1
# [31] = molecular target: Gal(a1-6)Glc
# In short: as §1
# [32] = molecular target: Gal(b1-2)Gal
# In short: as §1
# [33] = molecular target: Gal(b1-3)Gal
# In short: as §1
# [34] = molecular target: Gal(b1-3)Gal(b1-4)GlcNAc
# In short: as §1
# [35] = molecular target: Gal(b1-3)Gal(b1-4)GlcNAc(b1-2)Man(a1-3)[Gal(b1-3)Gal(b1-4)GlcNAc(b1-2)Man(a1-6)]Man(b1-4)GlcNAc(b1-4)GlcNAc
# In short: as §1
# [36] = molecular target: Gal(b1-3)GalNAc
# In short: as §1
# [37] = molecular target: Gal(b1-3)GalNAc(a1-3)[Fuc(a1-2)]Gal(b1-4)Glc
# In short: as §1
# [38] = molecular target: Gal(b1-3)GalNAc(a1-3)[Fuc(a1-2)]Gal(b1-4)GlcNAc
# In short: as §1
binder,measurement,setting,value
PpFlo2 (Pichia pastoris) (protein) MGSSHHHHHHSSGLVPRGSHMDDSGNGDNSDTAYGCDITTNAVDGFDATIYQYNANDLRLIRDPTFMSTGYLGRNVLNKISGVTVPGFNIWNPSSRTATVYGVKNVNYYNMVLELKGYFKADVSGDYKLTLSHIDDSSMLFFGKETAFKCCDAGSIPLNEAPTDYSLFTIKPSNQVNSEVISATQYLEAGKYYPVRIVFVNALERARFDFKLTIPSGAVLDDFQNYIYQFGDLDENSCHE,glycan array binding signal (z-score),[1],-0.313
same,glycan array binding signal (z-score),[2],-0.297
same,glycan array binding signal (z-score),[3],-0.293
same,glycan array binding signal (z-score),[4],-0.275
same,glycan array binding signal (z-score),[5],-0.285
same,glycan array binding signal (z-score),[6],-0.287
same,glycan array binding signal (z-score),[7],-0.301
same,glycan array binding signal (z-score),[8],-0.302
same,glycan array binding signal (z-score),[9],-0.297
same,glycan array binding signal (z-score),[10],-0.274
same,glycan array binding signal (z-score),[11],-0.295
same,glycan array binding signal (z-score),[12],-0.3
same,glycan array binding signal (z-score),[13],-0.271
same,glycan array binding signal (z-score),[14],-0.293
same,glycan array binding signal (z-score),[15],-0.3
same,glycan array binding signal (z-score),[16],-0.302
same,glycan array binding signal (z-score),[17],-0.27
same,glycan array binding signal (z-score),[18],-0.213
same,glycan array binding signal (z-score),[19],-0.274
same,glycan array binding signal (z-score),[20],-0.269
same,glycan array binding signal (z-score),[21],-0.302
same,glycan array binding signal (z-score),[22],-0.276
same,glycan array binding signal (z-score),[23],-0.298
same,glycan array binding signal (z-score),[24],-0.291
same,glycan array binding signal (z-score),[25],-0.266
same,glycan array binding signal (z-score),[26],-0.296
same,glycan array binding signal (z-score),[27],-0.275
same,glycan array binding signal (z-score),[28],-0.23
same,glycan array binding signal (z-score),[29],-0.265
same,glycan array binding signal (z-score),[30],-0.264
same,glycan array binding signal (z-score),[31],-0.301
same,glycan array binding signal (z-score),[32],-0.298
same,glycan array binding signal (z-score),[33],-0.296
same,glycan array binding signal (z-score),[34],-0.3
same,glycan array binding signal (z-score),[35],-0.061
same,glycan array binding signal (z-score),[36],-0.296
same,glycan array binding signal (z-score),[37],-0.3
same,glycan array binding signal (z-score),[38],-0.298
